From PubChem BioAssay AID652104 (National Center for Advancing Translational Sciences (NCATS), 2013)
Values joined by “and” are separate entries in the source; they are usually repeats but may differ in a detail not shown here. Equal entries are not always repeated. Screen size: about 410,000 compounds; about 7,200 (1.8%) were called active. The shares of active, inactive and inconclusive entries below differ from those in the screen. Calls come from the whole dose curve; as a rule, active = well fitted activation curve with a large enough effect; inconclusive = small, poorly fitted or top-dose-only effect, or another doubt; inactive = no such curve, though single readings can be large or run the other way. Potencies beside an inconclusive call are fits to weak or partial responses and may not hold up.
Potency is the fitted concentration of half-maximal effect; tags give direction and shape of the fitted curve.

Test: qHTS of TDP-43 Inhibitors; note: nearly all actives have a fitted effect of over 50% in size; for growth rescue (activation): % of control where 0% means no effect
Settings: TDP-43 expressing yeast growth rescue, BacTiter-Glo, 24 h; growth rescue (activation): at 46.1 µM (top of the series) unless noted
Summary of the method: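 Cell-based yeast growth screen: TDP-43 expression induced in galactose, inoculum OD600=0.02 after raffinose pregrowth to mid-log. Read-out BacTiter-Glo luminescence at 24 hr, 30 deg C; inhibition of toxicity seen as signal increase.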
For `CCc1nc2ccc(C(=O)N(C)CC(=O)Nc3ccc(Cl)c(C(F)(F)F)c3)cc2nc1CC`, the Potency was inconclusive: 12.6 µM [activator, single point]. For `O=C(NCCCN1CCOCC1)C(=O)NCC1OCCN1S(=O)(=O)c1ccc(Br)cc1` (stereo not given), the Potency was “inactive”. In the case of `COc1ccc(OCCn2c(C(C)Oc3ccccc3)nc3ccccc32)cc1` (stereo not given), the Potency is reported as active: 20 µM. In the case of `Cn1ncc(Br)c1C(=O)Nc1c(F)c(F)cc(F)c1F`, the Potency is reported as inconclusive: 35.5 µM [activator, partial curve]. For `O=C(c1cccs1)N1CCN(S(=O)(=O)c2cccc(Cl)c2Cl)CC1`, the Potency was inconclusive: 20 µM [activator, partial curve]. In the case of `Cc1ccc(Cl)cc1-n1ncc2c(NCc3ccc(F)cc3)ncnc21`, the Potency is reported as active: 20 µM. With `O=C(Nc1ccc(-c2ccc3nncn3n2)cc1)c1ccc(Br)o1` the Potency was “inactive”. For `COc1ccc(-c2cc3ccc(O)c(CN4CCCC(C)C4)c3oc2=O)cc1` (stereo not given), the Potency was inconclusive: 0.891 µM [activator, full curve, poor fit]. With `COc1ccc(NC(=O)CSc2nc3ccccc3nc2N2CCOCC2)cc1` the Potency was inconclusive: 17.8 µM [activator, partial curve]. In the case of `COc1ccc(S(=O)(=O)N2CCOC23CCN(C(=O)c2ccccc2Br)CC3)cc1`, the Potency is reported as inconclusive: 15.8 µM [activator, single point]. In the case of `CCCCOC(=O)c1ccc(NC(=O)C(=O)NCC2CCCO2)cc1` (stereo not given), the Potency is reported as inconclusive: 2 µM [activator, full curve]. For `CCN(CC)c1ccc(S(=O)(=O)N2CCOCC2)cc1NC(=O)CSc1cccc[n+]1[O-]`, the Potency was inconclusive: 35.5 µM [activator, single point]. In the case of `Cc1ccc(N(C(=O)c2nsc(Cl)c2Cl)C(C(=O)NC2CCCC2)c2ccc(O)cc2)cc1C` (stereo not given), the Potency is reported as “inactive”. In the case of `CC1CCC(Nc2ncnc3onc(-c4ccc(F)cc4)c23)CC1` (stereo not given), the Potency is reported as inconclusive: 15.8 µM [activator, single point]. For `Cc1nc2c(OCCOc3ccccc3)cccn2c1N(C)C(=O)CCC1CCCC1`, the Potency was inconclusive: 35.5 µM [activator, partial curve]. With `CC1CN(C(=O)C2(C)CC2(Cl)Cl)CC(C)O1` (stereo not given) the Potency was inconclusive: 31.6 µM [activator, partial curve]. In the case of `CN(C)Cc1c(C(=O)N/N=C/c2cccc(OCc3ccccc3)c2)nnn1-c1nonc1N`, the Potency is reported as inconclusive: 31.6 µM [activator, single point]. For `CCN1CCOC(CC(=O)Nc2cccc([N+](=O)[O-])c2)C1=O` (stereo not given), the growth rescue (activation) was inconclusive: -92.5% [activator]. In the case of `COc1ccc(-n2nc([N+](=O)[O-])c(=NCCc3ccc(Cl)cc3)n2O)cc1`, the Potency is reported as “inactive”. In the case of `O=C(NC1CCCCCC1)C(Cc1ccccc1)n1cccc1` (stereo not given), the Potency is reported as inconclusive: 8.91 µM [activator, partial curve]. For `Cc1ccccc1-n1nnnc1SC(C)C(=O)NC1CCCc2ccccc21` (stereo not given), the Potency was “inactive”. With `CC(C)(Oc1ccc(Cl)cc1)C(=O)NC1CCCCC1` the Potency was “inactive”. With `COCCCNC(=O)c1oc2c(c1C)-c1nn(Cc3ccc(Cl)cc3)cc1CC2` the Potency was “inactive”. With `COc1ccc(-c2nn(-c3ccccc3)cc2/C=C/C(=O)N(C)CC(=O)Nc2cccc(F)c2)cc1OC` the Potency was inconclusive: 10 µM [activator, partial curve]. With `CCOc1cc(C=NNC(=O)CCCC(=O)NN=Cc2ccc(O)c(OCC)c2)ccc1O` the Potency was inconclusive: 35.5 µM [activator, partial curve]. For `Cc1[nH]c2ccccc2c1C(=O)COC(=O)C1CC(O)CN1S(=O)(=O)c1ccc(Cl)cc1` (stereo not given), the Potency was “inactive”. With `Fc1ccccc1NC(=S)NCCc1ccc(Cl)cc1` the Potency was inconclusive: 14.1 µM [activator, single point]. For `CCCOc1ccc(CCC(=O)O)cc1`, the Potency was active: 14.1 µM. In the case of `COc1ccc(-c2c[n+](CC(=O)OC3CC(C)CCC3C(C)C)c3n2CCC3)cc1` (stereo not given), the Potency is reported as “inactive”. For `CC(SCc1ccccc1)C(=O)Nc1ccc2c(c1)OCO2` (stereo not given), the Potency was inconclusive: 11.2 µM [activator, partial curve]. For `O=[N+]([O-])c1ccccc1/C=N/n1c(C2CCCCC2)n[nH]c1=S`, the Potency was active: 31.6 µM. With `CC1(c2nnc(-c3cccc(Cl)c3)o2)CC(c2ccccc2F)=NO1` (stereo not given) the Potency was “inactive”. With `O=C(NCc1cccc(C(F)(F)F)c1)c1ccc2c(c1)OCCO2` the Potency was inconclusive: 12.6 µM [activator, single point]. For `Cc1[nH]c(=S)c(C#N)c(C)c1Cc1ccc(Cl)cc1Cl`, the Potency was inconclusive: 7.08 µM [activator, full curve, poor fit]. In the case of `S=c1[nH]nc(COc2ccccc2)n1/N=C/c1ccccc1Cl`, the Potency is reported as “inactive”. In the case of `CN(CC(=O)Nc1ccc(OC(F)(F)F)cc1)C(=O)/C=C/c1ccco1`, the Potency is reported as inconclusive: 12.6 µM [activator, single point]. For `COc1ccc(C2=CC(=O)OC3(CCCC3)O2)cc1`, the Potency was active: 15.8 µM. With `S=C1NCCc2ccccc2C1c1ccccc1` (stereo not given) the Potency was inconclusive: 12.6 µM [activator, partial curve]. For `CSc1nsc(SCC(=O)N2CCCCC2)n1`, the Potency was inconclusive: 28.2 µM [activator, partial curve]. In the case of `COc1ccc(-c2cc(C#N)nc(NN)n2)cc1`, the Potency is reported as inconclusive: 12.6 µM [activator, single point]. With `Nc1n[nH]c(C2CC2)c1N=Nc1ccc(Cl)c(Cl)c1` the Potency was inconclusive: 31.6 µM [activator, single point]. For `O=S(=O)(NCCSCc1ccc(Cl)cc1Cl)c1ccc2c(c1)OCCO2`, the Potency was inconclusive: 17.8 µM [activator, single point]. With `O=C(c1ccco1)N1CCN(C(=O)c2ccccc2OC(=O)C23CC4CC(CC(C4)C2)C3)CC1` the Potency was inconclusive: 25.1 µM [activator, single point]. In the case of `COc1ccc(-c2nc(CCNC(=O)c3cccs3)cs2)cc1`, the Potency is reported as inconclusive: 11.2 µM [activator, partial curve] and inconclusive: 11.2 µM [activator, single point]. With `COc1cc(OC)c(C(=O)NC2CCCCCC2)cc1OC` the Potency was inconclusive: 35.5 µM [activator, single point].
